# In PMC12136788:
# This is one part of the list.
# T1: UNK ZnF1-3 (human, UniProt Q9C0B0 31-174)
# T1 sequence: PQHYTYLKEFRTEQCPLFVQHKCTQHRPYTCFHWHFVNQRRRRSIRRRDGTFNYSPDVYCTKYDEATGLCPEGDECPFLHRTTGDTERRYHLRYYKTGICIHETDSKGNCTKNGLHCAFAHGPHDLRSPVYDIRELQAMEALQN
# B1: chrX:148369136:148369137:+_ENSMUSG00000025261_ENSMUST00000112622|mus_mus|FALSE|FALSE (ssRNA)
# RNA: GGGAGUUCUACAGUCCGACGAUCCCUGUAAAGGCUACUGCCUUCUUAACACAUGGGGUGGGGAUCAUGGACGGCAUGGAAAAGGGAGAGGCGAGGAAAGGGGAGACAAAAGAGAAUGAGAAGCGAACAGGUAUGCACUAGGGACAACAGAGGAUUGAGCAUCA
# B2: chr2:9570881:9570882:+_ENSG00000119203_ENST00000238112|hu_mus|hu_hu_hu_mus_False|28_88 (ssRNA)
# RNA: GGGAGUUCUACAGUCCGACGAUCACUUGUCUUCUGAAGGAACCAGGGCAGAGCUCCACAGUGAUCCAAAUGGAAAUGACUGAUCAACAGAAGGUCGAUCUCAGCUGGGUCAAUUAAGUCAAUGUAAGGAAGGGCAUCCAUUCCCAACAGAGGAUUGAGCAUCA
# B3: chr10:27431385:27431386:-_ENSG00000136758_ENST00000376016|hu_mus|FALSE|FALSE (ssRNA)
# RNA: GGGAGUUCUACAGUCCGACGAUCACAAAUGCUUCGAAGAGUUUUUGGAUGUUGCCUGUACAAGCUAGAGGAACGUAAUGUACUGAACAUAUCUAAGUGACCAUAUUUAUUUUCAAAAAAGGACUGUGCCGAAAUAUGAGAUGUCAACAGAGGAUUGAGCAUCA
# B4: chr3:76513020:76513021:+_ENSMUSG00000034098_ENSMUST00000038364|mus_hu|FALSE|FALSE (ssRNA)
# RNA: GGGAGUUCUACAGUCCGACGAUCUCAUCAAUUCUCUUGCCAGUUUUCUUUUCCUAGGUGUUAAUUUCCCUAUAUAUGGUUUACUUUAGCAGACAAAAGUAAUGUUUCUUUUUUAAAACCGAAAGUUCCUGAUGAUGAAACAUUCAACAGAGGAUUGAGCAUCA
# B5: chrX:48760955:48760956:-_ENSG00000102100_ENST00000376521|hu_hu|FALSE|FALSE (ssRNA)
# RNA: GGGAGUUCUACAGUCCGACGAUCUAAAAAACAAACCAAAAAAUCAGAACAAAUUAAUCAAAAAUAAAGAUCCAAUGGCUCUAUUUACAUAUAGCAAAGACAGCCCAGGCAUCUUCCAUGCACACACACACCCCGCCCCGAUACCAACAGAGGAUUGAGCAUCA
# B6: chr12:39756943:39756944:-_ENSG00000139116_ENST00000544797|hu_hu|motif|central (ssRNA)
# RNA: GGGAGUUCUACAGUCCGACGAUCUGUUUGGCUAUUACCCCCGAGGGAAUCCUGUAGUAGUCUUGUUAGCUUGGAAUCUCGGUAGGGGACAUGUGUGGCCCUCUUGCUCUUGUCUCCCAAGGCACUUAUUACAUUGCCAAGUGCCAACAGAGGAUUGAGCAUCA
# B7: chr5:68473423:68473424:+_ENSG00000134057_ENST00000507798|hu_hu|motif|central (ssRNA)
# RNA: GGGAGUUCUACAGUCCGACGAUCCUCCAACUCAAGUUUACAAGUUACACCUUUGCCACAGCCUUGGCUAAAUCUUGAACGGGUGCAGAAUUCAGCUGUGGUAGAGUGCUGAUCUUAGCAUGCUUCGAUGUGGCAUACUUGUUCCAACAGAGGAUUGAGCAUCA
# B8: 6765221_6770062_84_3pUTR_ENSMUSG00000073639_ENSMUST00000097680|mouse|control|control (ssRNA)
# RNA: GGGAGUUCUACAGUCCGACGAUCUCAGGAGCAGGCUGGACUUGCCCACCCCACUCUCGCCGAUGAUGAGUAUCUUCAGAGUGGUCAGCACGUCCUCGUCCAUCCUGCGCCCGCUCUACUCCGACCCAGCCCCCGUGCCCGUCACAACAGAGGAUUGAGCAUCA
# B9: chr9:113828744:113828745:+_ENSMUSG00000033392_ENSMUST00000111838|mus_hu|FALSE|FALSE (ssRNA)
# RNA: GGGAGUUCUACAGUCCGACGAUCAAGUAAUGUUAUGUACAGUUUUAUUGCCAGUAUAUGCACAACAGUAAGCAUAGAACUAUAAAUACACAAUGUAAUUAACAGUAGAAAACAAAAUUGUUACAGGUAGAGGGAGAGGAUAUACAACAGAGGAUUGAGCAUCA
# B10: chr2:9724522:9724523:-_ENSG00000134308_ENST00000238081|hu_mus|motif|central (ssRNA)
# RNA: GGGAGUUCUACAGUCCGACGAUCUUUUUUGGGACUACAGUCAAUGAUUAGCAAACACACAAUAUAGUGGUCCAACUCUCGGAAGAACAAUCACUGGACAAACCGGAUACCCUCUCCCAUGUGCACAACUCUGCAUGGAAAAGUCAACAGAGGAUUGAGCAUCA
# B11: 30344605_30344725_68_3pUTR_ENSG00000152219_ENST00000282032|human|control|control (ssRNA)
# RNA: GGGAGUUCUACAGUCCGACGAUCGGCUUCGGGCAAGAUGCGAGUCCACACAGGCCACACUCGACCGACCGCUUCCCAGCCAGUCCCCGCGCUACCACUGAGAGGACGGCAAGCGCGGGCUAGAGGAGCUCAACGCCACCACAACAACAGAGGAUUGAGCAUCA
# B12: chr12:105536279:105536280:+_ENSG00000136051_ENST00000332180|hu_mus|hu_hu_hu_mus_True|38_48 (ssRNA)
# RNA: GGGAGUUCUACAGUCCGACGAUCAGCACUGAACAUGUAAUGUAAUCUGGCUGCAUCGACAGCAUUUUCAUAUACAUCAUCUAAAUAAAUUGGGAAGACAGCUCGAUGCCAGUAUAAAAAACAGCAGUCACACUGUGCUUGGACCAACAGAGGAUUGAGCAUCA
# B13: chr5:128440902:128440903:+_ENSG00000066583_ENST00000173527|hu_mus|hu_hu_hu_mus_True|8_68 (ssRNA)
# RNA: GGGAGUUCUACAGUCCGACGAUCUUGAACGGUGCUGCCAAGUCCUUUGGGGUAUUGUUCCGUUAUGAUAACAGGAAUCCCUAAGAUCCGAGCUCCUUGCAACAGUCUCUGUCCCACACUAAUGAUGUCCCCAAAAUAUUUGAUCAACAGAGGAUUGAGCAUCA
# B14: chr5:141111964:141111965:-_ENSMUSG00000036565_ENSMUST00000042661|mus_hu|FALSE|FALSE (ssRNA)
# RNA: GGGAGUUCUACAGUCCGACGAUCGUGCUCCUCGCUCUUGCGCCGCCGGCAGCACAGCCAGAAGGAGUAGAAGAGCAGGAAGAGGAGGUCCAGGGCGAGGCAGGCCAGGGCGGCGGCCCCCAGGAGCAGCAGGGCCUGCUGGUACAACAGAGGAUUGAGCAUCA
# B15: 41621242_41621362_836_CDS_ENSG00000064042_ENST00000508501|human|control|control (ssRNA)
# RNA: GGGAGUUCUACAGUCCGACGAUCGACGUAGGCCGUCUGAUUGCUUUUGUUCGGGAGGUACUGGUUAAAAGGCACUGCUGAUUUCGGCUCACCAUGGGAAGUCCGCCGUGCAGACAUGUCAUCCUUCUUCACAUCUGGCAGCUUCAACAGAGGAUUGAGCAUCA
# B16: chr5:138606049:138606050:-_ENSMUSG00000029730_ENSMUST00000000505|mus_hu|FALSE|FALSE (ssRNA)
# RNA: GGGAGUUCUACAGUCCGACGAUCGAGCUCCUCAUAUUCAUCCAGAGCCGCCUGGAACUGGGCGGGUGUGAAGCCACGAGAUACACAGCGCUGCUCUGCCUCAGAGAACCGGACACUUCGGCCCCCUGAGACCAGUUCACGGACCAACAGAGGAUUGAGCAUCA
# B17: chr17:88379672:88379673:+_ENSMUSG00000005370_ENSMUST00000005503|mus_mus|FALSE|FALSE (ssRNA)
# RNA: GGGAGUUCUACAGUCCGACGAUCUCCCUUUUGGGCUUCCUUUGACUUUGAACCUGUAUAUGGCUUUAACAUCCUUUUGCUAACCCAGCCCCUUGUUGGGCUGUCAUCAAAGAACUGUACAUGAACACGGACAGAUUUCCCUUUCAACAGAGGAUUGAGCAUCA
# B18: chr11:93987321:93987322:+_ENSMUSG00000020859_ENSMUST00000103168|mus_hu|motif|central (ssRNA)
# RNA: GGGAGUUCUACAGUCCGACGAUCUACAAAGUUACAUUCUGAACCCCAGGGAUUCCAUAAUAGAAAUAAAUACUGAAAUAACGGCAUUGCUAAAUGAGCUCUUUGCUCAUAGAAAUGAAGCUCAGCCUCUAAGAGACAGCAAGUCAACAGAGGAUUGAGCAUCA
# B19: chr1:55135153:55135154:-_ENSMUSG00000025980_ENSMUST00000027123|mus_hu|FALSE|FALSE (ssRNA)
# RNA: GGGAGUUCUACAGUCCGACGAUCUUCAUUAAUAAAGGUAAAGCACUAGUCUAGGAGUUAGAACAUGCCACCUCCCAUACCACCUCCCAUUCCACCCAUUGCACCCAUUCCAGGGUCCUUCUCUUCUUUAGGAAUUUCUGUGACCAACAGAGGAUUGAGCAUCA
# B20: chr4:107087291:107087292:+_ENSMUSG00000028614_ENSMUST00000139560|mus_hu|FALSE|FALSE (ssRNA)
# RNA: GGGAGUUCUACAGUCCGACGAUCUUUUUAAUCUUGUAACUUAAGAACUGAGUUUUUCCACAUUCCUUUAUAUAGAGUUAGCAUCUGUAAACUGAGACCCUUUUUUGGGUAAUCAUACAAAUUUAAUUUGUCCCUGGAAACAAACAACAGAGGAUUGAGCAUCA
# B21: chr6:124414581:124414582:-_ENSMUSG00000008153_ENSMUST00000008297|mus_mus|FALSE|FALSE (ssRNA)
# RNA: GGGAGUUCUACAGUCCGACGAUCGCGGUGCUAAGCACGCCAGGCCAGGCGUUCCUAUCCCCUGGGAGCCUCAAGCCUGCUAAUGCCACCUUGGGGGAGAAAUGCAGAGACUACGAGGGAAGGGCAGGGGGACAAGAUCGGAAACAACAGAGGAUUGAGCAUCA
# B22: chr3:10015032:10015033:+_ENSMUSG00000027533_ENSMUST00000029046|mus_hu|FALSE|FALSE (ssRNA)
# RNA: GGGAGUUCUACAGUCCGACGAUCGUUUUUACCAUCACAAGUGAUGAUACAAUCUGGCUUGGCCAUUGCGCCCAUUUUUCGCAAAGCUAUUCCCACUCCUAGCUCCUUCAUGUAUUCAUCAAAGCCUUUGCUGUCCACCAGGCGCAACAGAGGAUUGAGCAUCA
# Biological target: T1, UNK ZnF1-3
# Test: nsRBNS (natural sequence RNA bind-n-seq); RBNS binding buffer (assumed for nsRBNS): 25 mM Tris pH 7.5, 150 mM KCl, 3 mM MgCl2, 0.01% Triton X-100, 500 ug/ml BSA, 20 U/ml SUPERase-In, 4 C; UNK is unkempt and MSI1 is Musashi-1; names of the RNAs are library labels; protein concentration not given here; high values mean tight binding
row,Binder,binding signal [enrichment R]
1,B1,2.23
2,B2,1.62
3,B3,1.57
4,B4,0.604
5,B5,2.23
6,B6,0.484
7,B7,0.412
8,B8,0.723
9,B9,1.12
10,B10,1.19
11,B11,0.984
12,B12,2.26
13,B13,0.849
14,B14,1.57
15,B15,0.65
16,B16,0.806
17,B17,0.547
18,B18,1.28
19,B19,1.13
20,B20,0.707
21,B21,1.19
22,B22,0.787
